Assay results taken from PMC12136788.
Some of the results follow.

B1: chr18:56819859:56819860:+_ENSG00000166562_ENST00000588875|hu_mus|hu_hu_hu_mus_True|8_78 (ssRNA)
RNA: GGGAGUUCUACAGUCCGACGAUCAACCUUGAUUACUCUGUGAACUAUCGGAAUGUCUCGUCCUUCAACCUUAAAAACAACUAUUUCACCAGCUCUGAUGGGGUCCUCCCGGAAAUUCGUGAGGAACAGGAGGUCUCCUCUGUGCAACAGAGGAUUGAGCAUCA
B2: chr2:9570881:9570882:+_ENSG00000119203_ENST00000238112|hu_mus|hu_hu_hu_mus_False|8_18 (ssRNA)
RNA: GGGAGUUCUACAGUCCGACGAUCACUUGUCUUCUGAAGGAACCAGGGCAGGGCUCCACAGUGAUCCAAAUGGAAAUGACUGAUCAACAGAAGGUCGAUCUCAGCUGGGUCGAUAAGAUCAAUAUAAGGAAGAGCAUCCAUUCCCAACAGAGGAUUGAGCAUCA
B3: 49672768_49764784_223_CDS_ENSG00000102935_ENST00000562871|human|control|control (ssRNA)
RNA: GGGAGUUCUACAGUCCGACGAUCUGGGUCGUCAUCACCAUCUCCAGGACAGCGGUGGGCCCGGUGGUCCGUCAGGUCUGCCAGAGACUCGAAGUCCUGCUGACAGUGAUCGCAGGUGUAAAUUGAUUCAUCCUCCAUGUCUUCCAACAGAGGAUUGAGCAUCA
B4: chr3:196089228:196089229:-_ENSG00000163960_ENST00000296328|hu_hu|FALSE|FALSE (ssRNA)
RNA: GGGAGUUCUACAGUCCGACGAUCUUCCCUUUUUCCAUCUGGAUACCGCAACAUCAGCUGUGCUUUUGGUCCAUUUACAUCUAUCCCCUCCACUACUCCAUCUGCUUUUUCAGGUGGCAUCUCCAGUAUCUCUGAAUCCACAGCCAACAGAGGAUUGAGCAUCA
B5: 154391535_154396286_1232_3pUTR_ENSMUSG00000026482_ENSMUST00000027760|mouse|control|control (ssRNA)
RNA: GGGAGUUCUACAGUCCGACGAUCGAAAGUUCUUCAAACAUCAGCAUUCUGUCCUUCGGGACAGCAGCCCAAGCCUUUUUCAACCGAUAGAUGGAAUUAGACUGCAGUGCGGAAACGAUGGCCCUCAAGGAGGAAAAAUUCUUCCAACAGAGGAUUGAGCAUCA
B6: chr11:9452432:9452433:+_ENSG00000205339_ENST00000379719|hu_hu|motif|central (ssRNA)
RNA: GGGAGUUCUACAGUCCGACGAUCAAAUGUCAUUGCCAAAUGUUGUGUCAUUUCUACUGCAAUAGGAGUAACUUCUUCACGGUAUUCACAGAUCAUUUUCUGAAUUACAUUGGUAAGGUCAUCAUUUUCUGUUUCUCUUAUAAUCAACAGAGGAUUGAGCAUCA
B7: 126725971_126726091_2158_CDS_ENSMUSG00000043872_ENSMUST00000106102|mouse|control|control (ssRNA)
RNA: GGGAGUUCUACAGUCCGACGAUCAGACACAUGAACUGUGUUGAACAAAGAGCAGAGAGUGUGUAGUGCCUCGCGGAGCUCCUUCACCUCCUUACAGAAGCUAAUCACCGCUAACUCCAAAAAAUGGGCGUGACAAUGCACAUACAACAGAGGAUUGAGCAUCA
B8: chr14:76904430:76904431:+_ENSMUSG00000022010_ENSMUST00000022587|mus_mus|mus_mus_mus_hu_True|8_88 (ssRNA)
RNA: GGGAGUUCUACAGUCCGACGAUCUGCAGCCAAAAACACCCUCGUGGCGGGAGGGAGGGAACACCAGCAGCCUUGUAUAAGCUAGAUAAAAUCUUCUGGCUUUCCGCAGCCCAGGGAGAAACAGAAAUGGUGCUGGCUAAUUUACAACAGAGGAUUGAGCAUCA
B9: chr9:131457026:131457027:+_ENSG00000119335_ENST00000372688|hu_hu|FALSE|FALSE (ssRNA)
RNA: GGGAGUUCUACAGUCCGACGAUCGUAGAGAAAAGAGACCUCAAGAACAGGGCGACUGAGCACAAGAGGGAAAAAAAAAAAAAAAAAAAAAAAAGACUGCAACUUGCUCCCAGGGACUGGAGAAAAUUUAAAAAAAGGAAGGUUCAACAGAGGAUUGAGCAUCA
B10: chrX:140365796:140365797:-_ENSMUSG00000031285_ENSMUST00000033642|mus_mus|mus_mus_mus_hu_False|8_38 (ssRNA)
RNA: GGGAGUUCUACAGUCCGACGAUCCUUCUCAUUACUCAGUGCCUGCAAGGUUCUGGUUCGGUAGAAGCUACAGUGGGCGCUGUGAGUGGGGCUAGGCAGUCCAUUCAUCCGGGAGCCUCGCAUGUUCCUAGAUGCUUUAUCUCUCAACAGAGGAUUGAGCAUCA
B11: 49432654_49433006_8424_CDS_ENSG00000167548_ENST00000301067|human|control|control (ssRNA)
RNA: GGGAGUUCUACAGUCCGACGAUCGGAGGUUGCUGCUGUUGCCUGUUGUUGCUGCCACAGUUGUUGCUGUUGCUGCUGUAAGGGCAGGGACCCAGGAUAGGGUGCUCGCUGAUAGAAAGCUUGGGAGCCUCCUACCAGUUGCCGCAACAGAGGAUUGAGCAUCA
B12: chr7:143079985:143079986:+_ENSG00000159840_ENST00000392910|hu_mus|FALSE|FALSE (ssRNA)
RNA: GGGAGUUCUACAGUCCGACGAUCCUGAGGCUUGGCCUGCGGCUGAGGUGGUGGCUGGGAGCUAGAAGGGGUCUUCCAAGGAGGCAAGGGUGCUGUGCCCCCAGGGGCAGGUUUGGUACUAGGCUUGGGAACAAAUGGAGUGGCCAACAGAGGAUUGAGCAUCA
B13: chr12:98991669:98991670:+_ENSG00000075415_ENST00000552981|hu_hu|motif|central (ssRNA)
RNA: GGGAGUUCUACAGUCCGACGAUCGAAUCCGUUAAAUAUGCCCUUGUACUUUUGGGGGUCCACCUGCAUACGGCAUUUCACGGAAUCCAGGGGAACCACAGCAGUGUGUGUCAGACCACAACUUAAGACCCCACCAAAGCCACACAACAGAGGAUUGAGCAUCA
B14: chr12:493273:493274:-_ENSG00000073614_ENST00000399788|hu_mus|hu_hu_hu_mus_False|38_38 (ssRNA)
RNA: GGGAGUUCUACAGUCCGACGAUCUUUUCUCUCCACCACAGGGAUCUUCAAUGUAGAUCCUUGAAGUUCCCAAAAUUUUGCCAGUUGAUCCAAGAAGUCCAAUCUCACUCUAGUCAUUGCCUCAAGUUCAUUCAGGCGCUGGACCAACAGAGGAUUGAGCAUCA
B15: chr14:53324496:53324497:-_ENSG00000073712_ENST00000341590|hu_mus|FALSE|FALSE (ssRNA)
RNA: GGGAGUUCUACAGUCCGACGAUCUAUUGUAACACAAAGGCUGCAUAUCUUAGGCAGAUAGUGAGUAUGCUGGUGAAUACUAAGAGUACUGUAAUACAGUUUGGUGUAAAACUAAACACAAAACAAUGUACAGCAUGCUUACUCCAACAGAGGAUUGAGCAUCA
B16: chr7:7679991:7679992:-_ENSG00000106399_ENST00000396682|hu_hu|hu_hu_hu_mus_False|18_88 (ssRNA)
RNA: GGGAGUUCUACAGUCCGACGAUCUGGGAUGAAUCUUUUCCAGCUUCCCUACGAAGCACACGGGCCGGUCGAUAUACUGUGGUAACAUGCUGGCGUUGACGCGCGCUUUGGGGAGCUCCAUCAUGUCCUCCAUGAUUCUGCCGCCAACAGAGGAUUGAGCAUCA
B17: chr7:130129250:130129251:+_ENSMUSG00000030779_ENSMUST00000052135|mus_mus|motif|central (ssRNA)
RNA: GGGAGUUCUACAGUCCGACGAUCCUCCUCUGGUAAGAAGGGUGGUUUCUCUUUCUUCCCGAUUGCAUAGGCCUCUGCAUCGGUAGUUGGUAUUGCAUAUUUUCCAGUGUUUGUAAGCAUUGCACCUUUCAUGUUAGGAUCUUUCAACAGAGGAUUGAGCAUCA
B18: chr1:39494447:39494448:+_ENSG00000168653_ENST00000372967|hu_mus|hu_hu_hu_mus_False|18_68 (ssRNA)
RNA: GGGAGUUCUACAGUCCGACGAUCGCACCGAGCGGCGUUCUUAUAGGGCUGUUCUGCGCUUAGGAACGUCAACCAUCGGUCCAGGCUGAUGCCCAGCUUUUUCUGUAUGUCAAGGAAAGGCAUGGCCCUGCAGUGCCCUUGUCACAACAGAGGAUUGAGCAUCA
B19: chr2:220084271:220084272:-_ENSG00000198925_ENST00000396761|hu_mus|FALSE|FALSE (ssRNA)
RNA: GGGAGUUCUACAGUCCGACGAUCGGAAGGGAGUGCAGGAAGGGUAGGAGCUGGAUCCCAGCAUGCAAUGUCGAAGCCCUAGGCUAGGGUGAGUCCAUUAUCCCUCCAUUCUCCUCUUGGUAAGUGAGGGAUACUGGGCAGAGCCAACAGAGGAUUGAGCAUCA
B20: chr14:62205016:62205017:+_ENSG00000100644_ENST00000337138|hu_hu|motif|central (ssRNA)
RNA: GGGAGUUCUACAGUCCGACGAUCCUGAUCCUGAAUCUGGGGCAUGGUAAAAGAAAGUUCCAGUGACUCUGGAUUUGGUUCGGAUUUUAAUGCAACUUCUUGAUUGAGUGCAGGGUCAGCACUACUUCGAAGUGGCUUUGGCGUCAACAGAGGAUUGAGCAUCA
B21: chr11:29607782:29607783:+_ENSMUSG00000020458_ENSMUST00000102843|mus_hu|FALSE|FALSE (ssRNA)
RNA: GGGAGUUCUACAGUCCGACGAUCAUUAAUAUUUUCAGGCUCUUUAAUUUCUUCCUUUAUUCCUGAUACUUUUUUUAGUGAUACACUCAUGGCCUCUUCAUAUGGUGGGGGGUUUUCAGGCUCAUGUUUUAUGCUUUCAUAAUUCAACAGAGGAUUGAGCAUCA
B22: chr16:94637918:94637919:+_ENSMUSG00000040785_ENSMUST00000117648|mus_mus|motif|central (ssRNA)
RNA: GGGAGUUCUACAGUCCGACGAUCAUCCUGGUGUGCAGCUCUGGAAGAUUUUGAAAACUGUUUCUCCAAAAUGCUUUUCAAAUCGGCUUGUAAACUCACUUCUGAAUUAGAACUGGGCUUUUCUGAUUCAUUGUUUCGUGAUUUCAACAGAGGAUUGAGCAUCA

Target: T1, UNK ZnF1-3 (human, UniProt Q9C0B0 31-174)
T1 sequence: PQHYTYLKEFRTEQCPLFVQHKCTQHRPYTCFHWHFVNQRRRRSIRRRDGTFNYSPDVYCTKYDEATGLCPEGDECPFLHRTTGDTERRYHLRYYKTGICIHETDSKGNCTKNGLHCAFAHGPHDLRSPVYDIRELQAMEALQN
Assay: nsRBNS (natural sequence RNA bind-n-seq); RBNS binding buffer (assumed for nsRBNS): 25 mM Tris pH 7.5, 150 mM KCl, 3 mM MgCl2, 0.01% Triton X-100, 500 ug/ml BSA, 20 U/ml SUPERase-In, 4 C; UNK is unkempt and MSI1 is Musashi-1; names of the RNAs are library labels; protein concentration not given here; high values mean tight binding

| Binder | binding signal |
| --- | --- |
| B1 | 0.864 enrichment R |
| B2 | 1.4 enrichment R |
| B3 | 0.719 enrichment R |
| B4 | 0.957 enrichment R |
| B5 | 1.48 enrichment R |
| B6 | 0.762 enrichment R |
| B7 | 1.03 enrichment R |
| B8 | 2.04 enrichment R |
| B9 | 2.58 enrichment R |
| B10 | 0.437 enrichment R |
| B11 | 0.747 enrichment R |
| B12 | 1.94 enrichment R |
| B13 | 1.01 enrichment R |
| B14 | 0.97 enrichment R |
| B15 | 0.553 enrichment R |
| B16 | 0.85 enrichment R |
| B17 | 0.344 enrichment R |
| B18 | 0.717 enrichment R |
| B19 | 0.867 enrichment R |
| B20 | 0.878 enrichment R |
| B21 | 0.553 enrichment R |
| B22 | 0.616 enrichment R |
